Molecules are shown by their SMILES. Hit rate of the full screen: of about 39,000 compounds, about 220 (0.56%) showed activity. Some of the results follow.
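Note: static incubation at 37 °C against the wild-type strain, values averaged over two biological replicates.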

The experiment deals with Escherichia coli K-12 BW25113. The experiment in a line: relative growth (OD600 normalised to plate interquartile mean) (fraction); higher = less growth inhibition, active = 0.2 or less. The conditions noted are these: 50 µM; LB; incubation time: overnight (16-24 h).
For `COc1cccc(S(=O)(=O)N2C[C@H](O)COC[C@@H]3O[C@@H](CC(=O)N4CCN(C)CC4)CC[C@H]32)c1`, the relative growth was inactive: 0.901.
As to `O=C1NCCN2CCN(C(=O)Cn3cccc3)C[C@@H]12`, the relative growth is inactive: 1.
As for `COCCNC(=O)C[C@@H]1CC[C@H]2[C@H](COc3ccc(NS(=O)(=O)c4ccc(Cl)cc4)cc3C(=O)N2C)O1`, the relative growth was inactive: 0.967.
`C[C@@H]1CCCCO[C@@H](CN(C)C(=O)c2ccncc2)[C@H](C)CN([C@@H](C)CO)C(=O)c2cc(NS(C)(=O)=O)ccc2O1`: the relative growth is inactive: 0.975.
With `C[C@@H]1CN([C@H](C)CO)C(=O)c2cc(C#CCN(C)C)cnc2O[C@@H]1CN(C)Cc1ccc(C(=O)O)cc1`, the relative growth is inactive: 1.
On to `O=C(C[C@@H]1CC[C@H]2[C@@H](COC[C@@H](O)CN2C(=O)c2ccccc2F)O1)N1CCN(c2ccccc2)CC1`, for which the relative growth is inactive: 0.986.
With `C[C@@H]1CCCCO[C@@H](CN(C)Cc2ccccc2)[C@@H](C)CN([C@@H](C)CO)C(=O)c2cc(NS(=O)(=O)c3cccs3)ccc2O1` the figure was inactive: 0.993; with `C[C@@H]1CN([C@H](C)CO)C(=O)c2cc(NC(=O)Nc3ccc(F)cc3)ccc2O[C@@H](C)CCCCO[C@H]1CN(C)Cc1ccncc1`, inactive: 1.03; with `CN1CCN(c2c(F)cc3c(=O)c(C(=O)O)cn(CCF)c3c2F)CC1`, active: 0.0442.
With `CO[C@@H]1[C@H](N(C)C(=O)c2ccccc2)C[C@H]2O[C@]1(C)n1c3ccccc3c3c4c(c5c6ccccc6n2c5c31)C(=O)NC4` the figure was inactive: 1.04; with `C[C@@H]1CN([C@@H](C)CO)C(=O)c2c(c3ccccc3n2C)-c2ccccc2CO[C@H]1CN(C)Cc1cccc(F)c1`, inactive: 0.986.
With `COc1ccc(S(=O)(=O)Nc2ccc3c(c2)CC(=O)N([C@H](C)CO)C[C@@H](C)[C@@H](CN(C)Cc2ccc(C(=O)O)cc2)O3)cc1` the figure was inactive: 0.991; with `Nc1ccc(C(F)(F)F)cc1Cl`, inactive: 1.01.
Consider `OCC1OC(O)(CO)C(O)C1O` (stereo unspecified), for which the relative growth is inactive: 1.11.
As to `C[C@@H]1CCCCO[C@H](CN(C)C(=O)CCC(F)(F)F)[C@H](C)CN([C@@H](C)CO)C(=O)c2cc(NC(=O)CCC(F)(F)F)ccc2O1`, the relative growth is inactive: 0.982.
With `C[C@@]1(C(=O)O)NCCc2cc(O)c(O)cc21`, the relative growth is inactive: 0.971.
With `OCc1cncnc1`, the relative growth was inactive: 1.02.
`C[C@@H]1O[C@H](O[C@H]2[C@H](OC(=O)[C@]34CCC(C)(C)C[C@@H]3C3=CC[C@@H]5[C@@]6(C)CC[C@H](O[C@@H]7O[C@@H](C)[C@H](O[C@@H]8OC[C@@H](O)[C@H](O)[C@H]8O)[C@@H](O)[C@H]7O)C(C)(C)[C@@H]6CC[C@@]5(C)[C@]3(C)C[C@@H]4O)OC[C@H](O)[C@H]2O)[C@H](O)[C@H](O)[C@H]1O[C@@H]1O[C@H](CO)[C@@H](O)[C@H](O)[C@H]1O`: the relative growth is inactive: 1.
Turning to `C[C@@H]1CN([C@H](C)CO)C(=O)c2cc(NC(=O)Nc3ccc(C(F)(F)F)cc3)ccc2O[C@@H](C)CCCCO[C@@H]1CN(C)CC1CCCCC1`, the relative growth was inactive: 0.963.
With `Cc1noc(C)c1NC(=O)Nc1ccc2c(c1)C(=O)N([C@H](C)CO)C[C@@H](C)[C@@H](CN(C)S(=O)(=O)c1cccs1)OCCCC[C@@H](C)O2` the figure was inactive: 1.02; with `COc1ccc(NC(=O)Nc2cccc3c2O[C@H](CN(C)Cc2ccc(-c4ccccc4)cc2)[C@@H](C)CN([C@H](C)CO)C3=O)cc1`, inactive: 1.01; with `C[C@@H]1CCCCO[C@@H](CN(C)C(=O)Nc2cccc3ccccc23)[C@@H](C)CN([C@H](C)CO)C(=O)c2cc(NC(=O)Nc3ccccc3)ccc2O1`, inactive: 1.06.
Regarding `C[C@H](CO)N1C[C@H](C)[C@H](CN(C)Cc2ccc(C(F)(F)F)cc2)Oc2c(NC(=O)Nc3ccc(F)cc3)cccc2C1=O`, the relative growth was inactive: 0.997.
With `C[C@H](CO)N1C[C@H](C)[C@@H](CN(C)C(=O)Nc2ccc3c(c2)OCO3)OCCCC[C@H](C)Oc2ccc(NS(=O)(=O)c3ccc(Cl)cc3)cc2C1=O` the figure was inactive: 1.03.
With `C[C@@H]1CCCCO[C@@H](CN(C)C(=O)Nc2cccc3ccccc23)[C@@H](C)CN([C@@H](C)CO)C(=O)c2cc(NC(=O)Nc3cccc4ccccc34)ccc2O1`, the relative growth is inactive: 0.849.
Regarding `Cc1noc(C)c1NC(=O)Nc1ccc2c(c1)C(=O)N([C@@H](C)CO)C[C@@H](C)[C@H](CN(C)Cc1ccc(C(=O)O)cc1)OCCCC[C@H](C)O2`, the relative growth is inactive: 1.01.
Turning to `Nc1nonc1C(=O)OCC(=O)N1CCOCC1`, the relative growth was inactive: 0.916.
As to `CC(=O)On1cc(F)c(=O)[nH]c1=O`, the relative growth is active: 0.0691.
On to `C[C@@H]1CN([C@@H](C)CO)C(=O)c2cc(NC(=O)C3CC3)ccc2O[C@H]1CN(C)C(=O)Nc1ccc2c(c1)OCO2`, for which the relative growth is inactive: 0.977.
Turning to `Cc1ccc(Oc2nnc(-c3cccs3)c3ccccc23)cc1`, the relative growth was inactive: 0.901.
For the molecule `Cc1noc(C)c1NC(=O)Nc1cccc2c1O[C@H](CN(C)Cc1ccc(C(=O)Nc3ccccc3N)cc1)[C@@H](C)CN([C@H](C)CO)C2=O`, the relative growth is inactive: 1.03.
With `Cn1cnc(CN)c1`, the relative growth is inactive: 1.03.
Take `C[C@H]1CN([C@@H](C)CO)C(=O)Cc2cc(NC(=O)Nc3ccc4c(c3)OCO4)ccc2O[C@@H]1CN(C)Cc1ccc(C(=O)Nc2ccccc2N)cc1`: the relative growth is inactive: 1.
As for `C[C@H]1CN([C@@H](C)CO)C(=O)c2c(c3ccccc3n2C)-c2ccccc2CO[C@H]1CN(C)C(=O)c1cc(Cl)cc(Cl)c1`, the relative growth was inactive: 1.15.
With `O=C(C[C@H]1CC[C@@H]2[C@H](COC[C@H](O)CN2C(=O)c2cccnc2)O1)NCC1CC1`, the relative growth was inactive: 0.993.
In the case of `Cc1noc(C)c1NC(=O)N(C)C[C@H]1OCCCC[C@@H](C)Oc2ccc(NS(=O)(=O)c3ccccc3)cc2C(=O)N([C@H](C)CO)C[C@H]1C`, the relative growth was inactive: 1.01.
For `O=C(O)CC[C@H]1CCCCN1`, the relative growth is inactive: 0.996.
With `Cc1ccc(S(=O)(=O)N2C[C@H](O)COC[C@@H]3O[C@H](CC(=O)N4CCc5ccccc5C4)CC[C@H]32)cc1` the figure was inactive: 1; with `C[C@H]1CCCCO[C@@H](CN(C)CC2CCCCC2)[C@@H](C)CN([C@@H](C)CO)C(=O)c2cc(NC(=O)c3ccccc3)ccc2O1`, inactive: 1.01; with `CON=C(C(=O)NC1C(=O)N2C(C(=O)[O-])=C(COC(N)=O)CSC12)c1ccco1.[Na+]` (stereo unspecified), active: 0.0464.
Regarding `COc1ccc(S(=O)(=O)N(C)C[C@@H]2Oc3cc(C#CC4CCCC4)ccc3S(=O)(=O)N([C@H](C)CO)C[C@H]2C)cc1`, the relative growth was inactive: 1.05.
With `C[C@@H]1CN([C@H](C)CO)C(=O)c2cccc(NC(=O)c3nc4ccccc4s3)c2O[C@H]1CN(C)Cc1ccc(C(=O)Nc2ccccc2N)cc1` the figure was inactive: 0.992.
Take `COc1ccc(NC(=O)Nc2ccc3c(c2)C(=O)N([C@@H](C)CO)C[C@@H](C)[C@@H](CN(C)C(=O)Nc2cccc4ccccc24)O3)cc1`: the relative growth is inactive: 1.04.
With `O=C1[C@@H]2[C@H](C(=O)N1c1ccccc1)C13COC[C@H](c4ccccc4)N1C(=O)C2(C(=O)NCCc1c[nH]c2ccccc12)O3` (stereo partly specified), the relative growth is inactive: 0.999.
As to `C[C@@H]1CCCCO[C@H](CN(C)C(=O)c2ccccc2)[C@H](C)CN([C@@H](C)CO)C(=O)c2cc(NC(=O)C3CCCCC3)ccc2O1`, the relative growth was inactive: 1.
With `COc1ccc(NC(=O)Nc2ccc3c(c2)C(=O)N([C@@H](C)CO)C[C@H](C)[C@@H](CN(C)Cc2ccccc2)OCCCC[C@@H](C)O3)cc1`, the relative growth is inactive: 1.01.
Take `C[C@H](CO)N1C[C@H](C)[C@@H](CN(C)Cc2ccc(C(=O)O)cc2)OCc2ccccc2-c2c(n(C)c3ccccc23)C1=O`: the relative growth is inactive: 0.997.
In the case of `CC(C)N1CC[C@@H](CN(C)Cc2ccc(Cl)cc2)Oc2c(NC(=O)c3ccncc3)cccc2C1=O`, the relative growth was inactive: 0.988.
The value for `CCO[C@@H]1OC(C(=O)N2CCOCC2)=C[C@H](c2ccccc2)[C@H]1CCCOC(=O)NCCCCCC(=O)NO` was inactive: 0.98.
The value for `CC1(C)OC2CC3C4CCC5=CC(=O)C=CC5(C)C4(F)C(O)CC3(C)C2(C(=O)CO)O1` (stereo unspecified) was inactive: 1.11; that for `C[C@H](CO)N1C[C@H](C)[C@H](CN(C)Cc2ccccn2)Oc2ncc(C#Cc3cccc(F)c3)cc2C1=O` was inactive: 0.98; that for `C[C@@H]1CN([C@@H](C)CO)C(=O)c2cc(Br)cnc2O[C@H]1CN(C)S(=O)(=O)c1ccc(F)cc1` was inactive: 1.
As to `C[C@H]1CCCCO[C@H](CN(C)C(=O)C2CCCCC2)[C@@H](C)CN([C@@H](C)CO)C(=O)c2cc(NS(=O)(=O)c3cccs3)ccc2O1`, the relative growth is inactive: 1.
Consider `Cc1ccc(S(=O)(=O)Nc2ccc3c(c2)C(=O)N([C@H](C)CO)C[C@@H](C)[C@H](CN(C)S(=O)(=O)c2ccc(F)cc2)O3)cc1`, for which the relative growth was inactive: 1.01.
Consider `C[C@@H]1CN([C@@H](C)CO)C(=O)CCCn2cc(nn2)CO[C@@H]1CN(C)C(=O)CCCN(C)C`, for which the relative growth is inactive: 0.992.
As for `CSC1=NCN(CCCO)CN1`, the relative growth is inactive: 1.01.
Regarding `CNc1ccccc1C(N)=O`, the relative growth was inactive: 0.984.
On to `C[C@H](CO)N1C[C@H](C)[C@H](CN(C)CC2CC2)OCCCC[C@H](C)Oc2ccc(NC(=O)Nc3ccc4c(c3)OCO4)cc2C1=O`, for which the relative growth was inactive: 0.969.
Turning to `C[C@@H]1CCCCO[C@H](CN(C)C(=O)Nc2ccc(C(F)(F)F)cc2)[C@@H](C)CN([C@@H](C)CO)C(=O)c2cc(NC(=O)Nc3cccc4ccccc34)ccc2O1`, the relative growth was inactive: 1.02.
Consider `Nc1cc(C(Cl)=C(Cl)Cl)c(S(N)(=O)=O)cc1S(N)(=O)=O`, for which the relative growth is inactive: 1.14.
On to `COc1ccc(CN(C)C[C@@H]2OCCCC[C@@H](C)Oc3ccc(NC(=O)Nc4ccc(OC)cc4)cc3C(=O)N([C@H](C)CO)C[C@@H]2C)cc1`, for which the relative growth is inactive: 0.925.

The record behind these values is the supplement of paper PMC9446081.
